Hit rate of the full screen: of about 48,000 compounds, about 450 (0.94%) were called active. Not shown: some 19% with an inconclusive outcome. The call rests on the fitted dose curve; in most records, active means well fitted inhibition curve with a large enough effect; inconclusive means small, poorly fitted or top-dose-only effect; inactive means no such curve, though single readings can be large or run the other way. This is one part of the list.
Assay: Primary qHTS for Identification of Small Molecule Inhibitors of Huntingtin Promoter Activity; further: nearly all actives have a fitted effect of over 50% in size
Conditions: HEK293 HTT promoter firefly luciferase reporter (activity 0% = vehicle and -100% = no light), 24 h; series mostly up to 57.5 µM; activity change, negative = inhibition: at the top concentration
Summary of the method: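 HEK293 Fluc reporter, 2,500 cells/well, 24 h pre-culture; cpds up to 57.5 uM final, 24 h 37 degrees C; Dual-Glo, 10 min RT; normalized vehicle = 0%, zero RLU = -100%.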
Potency means the concentration at half of the fitted maximal effect.

Activity change, negative = inhibition, inactive:
CC(CCc1ccccc1)NC(=O)Cn1c(=O)nc(-c2ccccc2)c2cc(Cl)ccc21 (stereo not given) 8.28%
CCc1ccc2oc(C(=O)N(Cc3ccc(N(C)C)cc3)Cc3ccco3)c(C)c2c1 -27.1%
O=C1c2ccccc2-c2onc3c(N4CCN(C5CCCCC5)CC4)cc(NCCO)c1c23 -6.95%
O=C(O)c1ccccc1OP(=O)(O)O 9.24%
CC(=O)c1cccc(NC(=O)C2CCN(c3ncnc4c3nc3n4CCCCC3)CC2)c1 -22.2%
CCn1ccc2cc(S(=O)(=O)N3CCCN(C(=O)Nc4ccccc4F)CC3)ccc21 -20.3%
O=C(COC(=O)c1cc(-c2cccs2)nc2ccccc12)c1ccc(F)cc1 -8.67% [at 11.5 µM]
O=C(CSc1nnc(-c2ccc3c(c2)OCO3)o1)Oc1ccccc1 -15.9%
O=C(Cn1c(=O)n(Cc2nc(-c3ccccc3)no2)c(=O)c2cc3c(cc21)OCO3)Nc1ccccc1 -5.75%
CCOc1ccc(-n2c(SCC(=O)Nc3cc(C)ccc3C)nc3c([nH]c4ccccc43)c2=O)cc1 -6.75%
CCC(C)n1c(=O)c2sccc2n2c(CCCC(=O)N3CCN(c4ccccc4)CC3)nnc12 (stereo not given) -20.7%
COc1cccc(Cc2nc3ccccc3nc2SCC(=O)Nc2cccc(C)c2)c1 -2.64%
Cc1ccc(Cn2cc(S(=O)(=O)c3cccc(C)c3)c(=O)c3cc(F)c(N4CCOCC4)cc32)cc1 -29.7%
COc1ccc(CNC(=O)c2sc3nc4n(c(=O)c3c2C)CCCC4)cc1 37.1%
O=C(Cc1ccccc1)Nc1sc2c(c1C(=O)Nc1ccccc1Cl)CCCCC2 -13.3%
COc1ccc2cc([C@H](C)C(=O)O)ccc2c1
CC(C)c1ccc(NC(=O)CSC2=Nc3ccccc3C3=NC(CCC(=O)NC4CCCCC4)C(=O)N23)cc1 (stereo not given) -6.53%
Cc1cccc(Nc2ncnc3onc(-c4ccc(Cl)cc4)c23)c1C -18.2%
Cc1ccc2oc3c(c(=O)c2c1)C(c1ccc(O)cc1)N(CCCN(C)C)C3=O (stereo not given) -12.7%
Cc1ccc(-n2c(=O)c3cccnc3n2CC(=O)NCc2ccc(Cl)cc2)cc1 -24.8%
Cc1cc(F)ccc1NC(=O)C(c1ccccc1)N1Cc2ccccc2C1=O (stereo not given) -13.1%
COC(=O)c1ccc([C@@H]2Nc3c(OC)ccc(C)c3[C@@H]3C=CC[C@@H]32)cc1 -25.5%
Nc1c(C(=O)Nc2ccc(F)cc2)sc2nc(-c3cccs3)cc(C(F)(F)F)c12 -27.2%
COc1ccc(C(=O)Nc2cccc(C(=O)OCc3cc(=O)n4nc(C5CC5)sc4n3)c2)cc1 -30.3%
CC1N=C2c3ccccc3N=C(SCC(=O)NCCc3ccc(Cl)cc3)N2C1=O (stereo not given) -6.15%
O=C(CCS(=O)(=O)c1cc2c(cc1Cl)NC(=O)CO2)NCc1ccc(Cl)cc1 -16.3%
O=c1cc(-c2ccccc2)c2ccc3c(c2o1)CN(Cc1cccc(Cl)c1)CO3 -22.6%
CCOc1ccc(CC(=O)Nc2cccc(-c3nc4cccnc4s3)c2C)cc1 -10.9%
Cc1ccccc1NC(=O)Cn1c(=O)n(CCCC(=O)NCc2ccc3c(c2)OCO3)c(=O)c2ccccc21 -2.66%
COc1ccc2[nH]cc(CCN=C(NC(=O)c3ccccc3F)Nc3nc(C)cc(C)n3)c2c1 -28.6%
COc1ccc(Cl)cc1NC(=O)c1c(NCc2ccc(C)o2)sc2c1CCC(C)C2 (stereo not given) -19.5%
C=C(C)CSc1nc2sc3c(c2c(=O)n1Cc1ccccc1)CC(C)(CC)OC3 (stereo not given) -9.73%
Cc1c(C(=O)Nc2ccccc2Br)oc2ccc(S(=O)(=O)N3CCCCCC3)cc12 -11.6%
CCC(C)NC(=O)CN1C(=O)c2cccnc2Sc2ccccc21 (stereo not given) 4.73%
Cc1ccc(CN2C(=O)C(O)(c3c(C)[nH]c4ccccc34)c3ccccc32)cc1 (stereo not given) -15.3%
COc1ccc(NC(=O)C2CCC(CNS(=O)(=O)c3cccc4nsnc34)CC2)cc1OC (stereo not given) -19.5% [at 11.5 µM]
COc1ccc(C(=O)n2nc(N)c3cc4ccc(C)cc4nc32)cc1OC 16%
COC(=O)c1cc2oc(C)cc2n1Cc1ccccc1Cl -19%
CC1CCN(C(=O)c2c(NC(=O)c3ccccc3Cl)sc3c2CCC(C(C)(C)C)C3)CC1 (stereo not given) -11.7%
Cc1cc2nc(-c3ccc(OCc4ccccc4C)cc3)cc(C(F)(F)F)n2n1 1.02%
Cc1cc(C)cc(-n2ccnc2SCC(=O)Nc2cccc3ccccc23)c1 -28.1%
CNC(=O)C1CCC(Cn2c(=O)c3sccc3n(Cc3cc(C)ccc3C)c2=O)CC1 (stereo not given) 1.69%
COc1ccc(N2C(=O)NC(NS(=O)(=O)c3ccc(Cl)cc3)(C(F)(F)F)C2=O)cc1 (stereo not given) -7.47%
Cc1ccccc1-c1nc(CN2CCCC(C(=O)NCc3ccc(Cl)cc3)C2)c(C)o1 (stereo not given) -8.72%
CCN(C(=O)Cn1c(C(=O)OC)cc2sc(Cl)cc21)c1cccc(C)c1 -5.04%
COc1ccc([N+](=O)[O-])cc1NC(c1nnc(-c2ccccc2)o1)c1ccccc1F (stereo not given) -13%
COc1ccc(C2C(=O)N(C3CCCCC3)CC(=O)N2CCc2ccc(C)cc2)cc1OC (stereo not given) 8.77%
NC(CS)C(=O)O (stereo not given) 5.1%
COc1ccc(NC(=O)CCc2c(C)nc3c(c2C)c(=O)n(C)c(=O)n3C)c(OC)c1 -13.9%
CCc1ccccc1NC(=O)Cn1nc2c3cc(F)ccc3n(Cc3cccc(C)c3)cc-2c1=O -8.73%
CCOC(=O)c1c(NC(=O)c2cc(-c3ccccc3OC)on2)sc(C)c1C -7.81%
CCc1ccc2oc(C(=O)NCC(c3ccc(OC)cc3)N3CCCCC3)c(C)c2c1 (stereo not given) -9.02%
Cc1cc(NC(=O)C2CCN(S(=O)(=O)c3c(C)noc3C)CC2)ccc1Br -29.8%
Cc1cc(C)c2nc(N(Cc3cccnc3)C(=O)CCS(=O)(=O)c3ccccc3)sc2c1 4.97%
COc1ccc(-c2nc3nc(C)cc(C)n3c2Nc2c(C)cccc2C)cc1 -17.8%
COc1ccccc1CNC(=O)C1(c2cccs2)CCOCC1 -2.44%
CCc1ccc(OCC(=O)Nc2ccc3c(c2)c2ccccc2n3CC)cc1 -5.78%
N#Cc1c[nH]n2c(NC3CCCCC3)c(-c3ccc(F)cc3)nc12 -5.52%

Potency, active:
Cc1nc2cc(-c3ccccc3)nn2c(C)c1CCC(=O)N1CCN(c2ccc(F)cc2)CC1 2 µM
COc1cc(C2CC(=O)N(Cc3cccc(F)c3)c3ccccc3S2)cc(OC)c1OC (stereo not given) 20 µM

Source: PubChem BioAssay AID1508623 (National Center for Advancing Translational Sciences (NCATS), 2021)
